# Experimental data reported in PMC6919601, “Identification of Plasmodium dipeptidyl aminopeptidase allosteric inhibitors by high throughput screening” (PLoS ONE, 2019).
# About 230 (0.21%) of roughly 110,000 compounds showed an effect of 50% or more. The list shows a part of the results.
# Target: DPAP1 (Plasmodium falciparum, UniProt Q8IIJ9)
# Assay: primary screen, percent inhibition; read by cleavage of a fluorogenic dipeptide substrate; higher = more effect of the substance
# Parameters: species or system P. falciparum D10 trophozoite lysates; single well
# 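Also: 30 min substrate incubation versus DMSO and 10 µM JCP410 controls.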
# DPAP1, sequence (Q8IIJ9 whole entry, looked up): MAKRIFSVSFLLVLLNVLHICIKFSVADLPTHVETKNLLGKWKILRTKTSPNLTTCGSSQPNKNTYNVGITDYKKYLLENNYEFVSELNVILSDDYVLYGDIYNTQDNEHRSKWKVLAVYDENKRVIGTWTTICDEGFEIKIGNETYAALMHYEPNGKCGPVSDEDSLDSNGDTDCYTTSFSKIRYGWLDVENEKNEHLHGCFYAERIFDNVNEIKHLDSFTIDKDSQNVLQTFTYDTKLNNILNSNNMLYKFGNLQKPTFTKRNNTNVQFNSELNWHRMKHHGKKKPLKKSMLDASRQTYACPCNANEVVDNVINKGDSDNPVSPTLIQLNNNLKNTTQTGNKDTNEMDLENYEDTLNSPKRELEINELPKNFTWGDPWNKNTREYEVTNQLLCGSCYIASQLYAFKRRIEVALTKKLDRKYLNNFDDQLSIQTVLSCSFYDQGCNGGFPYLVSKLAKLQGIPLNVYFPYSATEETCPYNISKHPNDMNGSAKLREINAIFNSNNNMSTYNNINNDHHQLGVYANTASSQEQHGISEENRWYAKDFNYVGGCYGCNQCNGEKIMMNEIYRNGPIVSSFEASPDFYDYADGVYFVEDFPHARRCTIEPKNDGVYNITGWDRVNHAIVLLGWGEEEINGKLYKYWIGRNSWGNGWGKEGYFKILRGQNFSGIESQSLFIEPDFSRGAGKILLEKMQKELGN
row,Compound,% Inhibition @ 10 uM
1,Cc1cccc(-c2nc(S(=O)(=O)c3ccc(Cl)cc3)c(N3CCOCC3)o2)c1,3.74%
2,COc1cccc(C(=O)NC(C)c2ccc(C)cc2C)c1 (stereo not shown),-4.89%
3,CC(C)OCCCNC(=O)C1CCN(c2nn3cc(-c4ccc(F)cc4)nc3s2)CC1,0.822%
4,O=C(Nc1nc2ccccc2[nH]1)c1ccccc1O,-5.04%
5,CCCCc1nnc(NC(=O)Cc2csc(C)n2)s1,-4.54%
6,COc1ccc(/C=C/C(=O)NCc2ccc(Cl)cc2)cc1,-6.12%
7,CC1CCN(c2nc(-c3ccc(F)cc3)cc(C(F)(F)F)n2)CC1,4.79%
8,CC(=O)Nc1ccc(-c2cc(-c3ccccc3)nc(-c3ccccc3)n2)cc1,2.55%
9,CCCCCCN1N=C(C)C(C(=O)c2ccc(Cl)cc2)C1=O (stereo not shown),-3.26%
10,Cc1cc(OCC(=O)Nc2ccc(F)cc2)ccc1Br,-2.78%
11,COc1ccc(CC(=O)Nc2ccc(Br)c(Cl)c2)cc1,-1.17%
12,Cn1cccc1CNCCc1c[nH]c2ccccc12,-1.15%
13,CCc1nnc(O)c2cc3sccc3n12,1.72%
14,CCN(CC)S(=O)(=O)c1cc(C(=O)NCc2ccccc2)ccc1C,-1.77%
15,CN(C)c1ccc(C(=O)CC2(O)C(=O)N(C)c3ccccc32)cc1 (stereo not shown),-5.9%
16,COc1ccc2c(c1)c(C(C)=O)c(C)n2-c1ccccc1,-2.42%
17,Cc1cc(C(=O)Nc2ccc3ccccc3c2)oc1C,3.24%
18,Cc1ccc(CNC(=O)C2CCCN(S(=O)(=O)c3cccc4nonc34)C2)cc1 (stereo not shown),-0.668%
19,O=C(CCn1c(=O)c2cccn2c2cccnc21)NCc1ccc2c(c1)OCO2,4.39%
20,CC(C)(C)c1ccc(S(=O)(=O)c2cc3cc(F)cc(F)c3oc2=O)cc1,-4.97%
21,CCN(CC)c1nc(Cl)nc(Cl)n1,2.3%
22,Cn1ncc(Br)c1C(=O)Nc1cnn(Cc2ccc(F)cc2)c1,0.214%
23,CCN(CC)CCCNC(=O)c1c(-c2ccccc2)noc1C,3.72%
24,COc1ccc(-c2cc(C(F)F)n3ncc(C(=O)NCc4ccc5c(c4)OCO5)c3n2)cc1,-8.55%
25,c1ccc(CN2CCN(C3C4CC5CC(C4)CC3C5)CC2)cc1 (stereo not shown),2.7%
26,C/C(=N\O)c1cc([N+](=O)[O-])c2ccccc2c1O,3.16%

row,Compound,% Inhibition @ 10 uM
1,CC1=CSC2=NC(=O)/C(=C/c3cc(C)n(-c4ccccc4C)c3C)C(=N)N12,0.565%
2,COc1ccc2c(CNCc3ccccc3F)c(C(=O)O)[nH]c2c1,-4.5%
3,Cc1cc(C)c2nc(N3CCC(C(=O)NCCCN4CCCC4=O)CC3)sc2c1,0.137%
4,Cc1nn(C(C)C(=O)N2CCCC2)c(=O)c2nn(-c3ccccc3)c(C)c12 (stereo not shown),-1.76%
5,CCOc1cccc2sc(Nc3nc4ccc(C(=O)OC)cc4s3)nc12,-1.28%
6,CN1CCN(Cc2c(NC(=O)c3ccc(F)cc3)sc3c2CCCC3)CC1,-1.04%
7,CC(C)CC(C(=O)NCC#N)c1csc(Nc2ccncc2)n1 (stereo not shown),3.19%
8,Cc1ccc(-c2cc(C(=O)NC(C)C)c3ccccc3n2)cc1,-1.84%
9,CC(C)Oc1ccc(CSc2nncn2N)cc1,0.484%
10,COc1cc(-n2cnnn2)ccc1S(=O)(=O)N1CCCCC1,-2.84%
11,CCCC1CCc2c(sc(NC(=O)CC(C)C)c2C(N)=O)C1 (stereo not shown),4.22%
12,Cc1cc(NC(=O)CC(c2ccccc2)c2ccccc2)no1,-0.598%
13,CCc1ccc(/C=C2/C(=N)N3C(=NC2=O)SN=C3S(=O)(=O)C(C)C)cc1,5.06%
14,CC(=O)N1CCC(NC2CCCCCC2)CC1,-1.78%
15,CC1CC(C)(C)NC(C)c2ccccc21 (stereo not shown),5.65%
16,CN(C)CCN(C)CC1CC2C=CC1C2 (stereo not shown),-4.14%
17,Oc1nncc(N2CCCC2)c1Cl,-3.78%
18,CS(=O)(=O)N(CC(=O)Nc1ccccc1)c1ccc(F)cc1,-5%
19,COc1cc(Br)c(/C=C2/C(=O)N=C(N)N2C)cc1OC,-6.44%
20,Cc1cc(C)c(S(=O)(=O)n2cnc3ccccc32)c(C)c1,-4.58%
21,Cc1cccc(Cl)c1OCCCN1CCOCC1,1.52%
22,COc1ccc(CN2CCCC(C)C2)c(OC)c1C (stereo not shown),-3.27%
23,CN(Cc1ccccc1)C(=O)C1CCC(CNS(=O)(=O)c2cccs2)CC1 (stereo not shown),-5.2%
24,Cc1cc2oc(C(=O)N(Cc3ccccc3F)C3CCS(=O)(=O)C3)c(C)c2cc1C (stereo not shown),3.62%
25,Fc1c(F)c(F)c(CSc2nc3ccccc3[nH]2)c(F)c1F,1.33%
26,CN1C(=O)C(=CNc2cnc3ccccc3c2)C(=O)N(C)C1=O,-4.75%
